Assay results reported in the supplement of paper PMC10369915.
Some of the results follow. No stated cut-off is given here; in the data, active = 3.2 or more and inactive = the rest. The signal is at background level for most entries.

Biological target: SHP2 C-SH2 domain E139D
Test: enrichment score (SH2-bound / input frequency) (ratio); bacterial display of known human phosphotyrosine sites (pTyr-Var adds point mutants) read by sequencing; higher = stronger binding; tyrosines were phosphorylated by kinases first
Settings: peptide library: pTyr-Var
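Further: displayed peptides selected on beads carrying the immobilized SH2 domain, with library peptides lacking any tyrosine serving as negative controls.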

Enrichment score, inactive:
ISRASYYRKGG [ALK_Y1282_Y1278S] 0.271, RISGVYKLPPD [ANGPTL7_Y145] 0.726, MARDIYRASFF [ALK_Y1278_YF] 1.02, NLNGKYFKPRA [ANGPTL3_Y417_N418Y_YF] 1.37, TIMTNYNPNFC [ALK_Y1092_D1091N_YF] 0.932, IFLADCRIMEG [ALOX12B_Y318_Y318C_YF] 0.923, AYQGKYTPSGQ [ALDOA_Y343_C339Y] 0.607, GTATTYLCGVK [ALPL_Y117_A116T] 0.704, NLNGKCNKPRA [ANGPTL3_Y417_Y417C] 0.754, NDHHFYLEGTL [ALDOB_Y223_V222F] 1.2, LEHCQYVTEKV [ALDOB_Y204] 0.883, HFPDVYAWEQL [ALX3_Y181_R183W_YF] 1.1, RSLLQYGGSAN [ANK1_Y624] 1.81, KLSFSYGQALQ [ALDOB_Y302_R304Q] 0.777, MTRDIYRASFF [ALK_Y1278_A1274T_YF] 0.778, NLNGKYNKPRA [ANGPTL3_Y417] 1.27, TIMTDYNPNFC [ALK_Y1092_YF] 0.823, RQQQDYWLMDV [ANPEP_Y600_I603M] 0.92, RPSRWYQFRVA [ANOS1_Y259] 0.245

Biological target: SHP2 C-SH2 domain wild-type
Test: as above
Settings: peptide library: pTyr-Var

Enrichment score, inactive:
ISRASYYRKGG [ALK_Y1282_Y1278S] 0.295, RISGVYKLPPD [ANGPTL7_Y145] 0.887, MARDIYRASFF [ALK_Y1278_YF] 0.965, NLNGKYFKPRA [ANGPTL3_Y417_N418Y_YF] 1.09, TIMTNYNPNFC [ALK_Y1092_D1091N_YF] 1.25, IFLADCRIMEG [ALOX12B_Y318_Y318C_YF] 1.17, AYQGKYTPSGQ [ALDOA_Y343_C339Y] 0.822, GTATTYLCGVK [ALPL_Y117_A116T] 0.656, NLNGKCNKPRA [ANGPTL3_Y417_Y417C] 0.836, NDHHFYLEGTL [ALDOB_Y223_V222F] 1.18, LEHCQYVTEKV [ALDOB_Y204] 1.4, HFPDVYAWEQL [ALX3_Y181_R183W_YF] 1.17, RSLLQYGGSAN [ANK1_Y624] 0.834, KLSFSYGQALQ [ALDOB_Y302_R304Q] 0.859, MTRDIYRASFF [ALK_Y1278_A1274T_YF] 0.787, NLNGKYNKPRA [ANGPTL3_Y417] 1.24, TIMTDYNPNFC [ALK_Y1092_YF] 0.896, RQQQDYWLMDV [ANPEP_Y600_I603M] 0.743, RPSRWYQFRVA [ANOS1_Y259] 0.265

Biological target: SHP2 N-SH2 domain L43F
Test: as above
Settings: peptide library: pTyr-Var

Enrichment score, inactive:
ISRASYYRKGG [ALK_Y1282_Y1278S] 0.234, RISGVYKLPPD [ANGPTL7_Y145] 0.815, MARDIYRASFF [ALK_Y1278_YF] 0.932, NLNGKYFKPRA [ANGPTL3_Y417_N418Y_YF] 1.11, TIMTNYNPNFC [ALK_Y1092_D1091N_YF] 0.844, IFLADCRIMEG [ALOX12B_Y318_Y318C_YF] 0.937, AYQGKYTPSGQ [ALDOA_Y343_C339Y] 0.478, GTATTYLCGVK [ALPL_Y117_A116T] 0.68, NLNGKCNKPRA [ANGPTL3_Y417_Y417C] 0.972, NDHHFYLEGTL [ALDOB_Y223_V222F] 1.26, LEHCQYVTEKV [ALDOB_Y204] 0.914, HFPDVYAWEQL [ALX3_Y181_R183W_YF] 1.18, RSLLQYGGSAN [ANK1_Y624] 0.753, KLSFSYGQALQ [ALDOB_Y302_R304Q] 0.862, MTRDIYRASFF [ALK_Y1278_A1274T_YF] 0.99, NLNGKYNKPRA [ANGPTL3_Y417] 1.16, TIMTDYNPNFC [ALK_Y1092_YF] 0.882, RQQQDYWLMDV [ANPEP_Y600_I603M] 0.836, RPSRWYQFRVA [ANOS1_Y259] 0.231

Biological target: SHP2 N-SH2 domain T42A
Test: as above
Settings: peptide library: pTyr-Var

Enrichment score, inactive:
ISRASYYRKGG [ALK_Y1282_Y1278S] 0.269, RISGVYKLPPD [ANGPTL7_Y145] 0.72, MARDIYRASFF [ALK_Y1278_YF] 0.848, NLNGKYFKPRA [ANGPTL3_Y417_N418Y_YF] 1.02, TIMTNYNPNFC [ALK_Y1092_D1091N_YF] 0.787, IFLADCRIMEG [ALOX12B_Y318_Y318C_YF] 0.907, AYQGKYTPSGQ [ALDOA_Y343_C339Y] 0.531, GTATTYLCGVK [ALPL_Y117_A116T] 0.682, NLNGKCNKPRA [ANGPTL3_Y417_Y417C] 0.72, NDHHFYLEGTL [ALDOB_Y223_V222F] 1.18, LEHCQYVTEKV [ALDOB_Y204] 1.17, HFPDVYAWEQL [ALX3_Y181_R183W_YF] 1.14, RSLLQYGGSAN [ANK1_Y624] 0.79, KLSFSYGQALQ [ALDOB_Y302_R304Q] 0.798, MTRDIYRASFF [ALK_Y1278_A1274T_YF] 0.728, NLNGKYNKPRA [ANGPTL3_Y417] 1.15, TIMTDYNPNFC [ALK_Y1092_YF] 0.739, RQQQDYWLMDV [ANPEP_Y600_I603M] 0.796, RPSRWYQFRVA [ANOS1_Y259] 0.482

Biological target: SHP2 N-SH2 domain T52S
Test: as above
Settings: peptide library: pTyr-Var

Enrichment score, inactive:
ISRASYYRKGG [ALK_Y1282_Y1278S] 0.26, RISGVYKLPPD [ANGPTL7_Y145] 0.901, MARDIYRASFF [ALK_Y1278_YF] 0.985, NLNGKYFKPRA [ANGPTL3_Y417_N418Y_YF] 1.24, TIMTNYNPNFC [ALK_Y1092_D1091N_YF] 0.933, IFLADCRIMEG [ALOX12B_Y318_Y318C_YF] 0.868, AYQGKYTPSGQ [ALDOA_Y343_C339Y] 0.692, GTATTYLCGVK [ALPL_Y117_A116T] 0.564, NLNGKCNKPRA [ANGPTL3_Y417_Y417C] 0.828, NDHHFYLEGTL [ALDOB_Y223_V222F] 1.23, LEHCQYVTEKV [ALDOB_Y204] 0.861, HFPDVYAWEQL [ALX3_Y181_R183W_YF] 1.49, RSLLQYGGSAN [ANK1_Y624] 0.909, KLSFSYGQALQ [ALDOB_Y302_R304Q] 1.09, MTRDIYRASFF [ALK_Y1278_A1274T_YF] 1.09, NLNGKYNKPRA [ANGPTL3_Y417] 0.98, TIMTDYNPNFC [ALK_Y1092_YF] 0.756, RQQQDYWLMDV [ANPEP_Y600_I603M] 0.76, RPSRWYQFRVA [ANOS1_Y259] 0.183

Biological target: SHP2 N-SH2 domain wild-type
Test: as above
Settings: peptide library: pTyr-Var

Enrichment score, inactive:
ISRASYYRKGG [ALK_Y1282_Y1278S] 0.293, RISGVYKLPPD [ANGPTL7_Y145] 0.917, MARDIYRASFF [ALK_Y1278_YF] 1.08, NLNGKYFKPRA [ANGPTL3_Y417_N418Y_YF] 1.24, TIMTNYNPNFC [ALK_Y1092_D1091N_YF] 1.36, IFLADCRIMEG [ALOX12B_Y318_Y318C_YF] 1.09, AYQGKYTPSGQ [ALDOA_Y343_C339Y] 0.667, GTATTYLCGVK [ALPL_Y117_A116T] 1.05, NLNGKCNKPRA [ANGPTL3_Y417_Y417C] 0.768, NDHHFYLEGTL [ALDOB_Y223_V222F] 1.18, LEHCQYVTEKV [ALDOB_Y204] 1.22, HFPDVYAWEQL [ALX3_Y181_R183W_YF] 1.08, RSLLQYGGSAN [ANK1_Y624] 1.04, KLSFSYGQALQ [ALDOB_Y302_R304Q] 1.05, MTRDIYRASFF [ALK_Y1278_A1274T_YF] 1.03, NLNGKYNKPRA [ANGPTL3_Y417] 1.4, TIMTDYNPNFC [ALK_Y1092_YF] 1.04, RQQQDYWLMDV [ANPEP_Y600_I603M] 0.964, RPSRWYQFRVA [ANOS1_Y259] 0.343
